Data as given in PubChem BioAssay AID485297 (National Center for Advancing Translational Sciences (NCATS), 2010).
About 9,100 (2.8%) of roughly 320,000 compounds were called active. The shares of active, inactive and inconclusive entries below differ from those in the screen. The call rests on the fitted dose curve; in most records, active means well fitted activation curve with a large enough effect; inconclusive means small, poorly fitted or top-dose-only effect; inactive means no such curve, though single readings can be large or run the other way. Potencies of inconclusive entries are left out as doubtful fits.

Test: qHTS Assay for Rab9 Promoter Activators; further: nearly all actives have a fitted effect of over 60% in size; on activation, negative = inhibition: % of control where 0% means no effect
Settings: Huh7 Rab9 promoter-luciferase reporter, luminescence, 24 h; series mostly up to 9.22 µM; activation, negative = inhibition: at the top concentration
Summary of the method: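 Measured in stably transfected Huh7 cells bearing a Rab9 promoter–luciferase construct: 24 h compound treatment at 37 °C, followed by luminescence detection.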
Potency means the concentration at half of the fitted maximal effect; tags describe the fitted curve by direction and shape.

Which Potency does the source give for `COc1ccc(C(=O)C2CCCN(C3Cc4ccccc4C3)C2)c(OC)c1` (configuration not stated) here?
Its Potency is inconclusive [activator, partial curve].

With `Cn1c(-c2cc3ccc(OC(=O)C(C)(C)C)cc3oc2=O)nc2ccccc21` as the molecule, how does the Potency read?
Its Potency is inconclusive [activator, partial curve].

Which Potency does the source give for `Cc1cccc(NC(=O)Nc2ccc(Cl)cc2)n1` here?
Its Potency is inconclusive [activator, single point].

Which Potency does the source give for `Cc1cc(C(=O)Cn2nc(C(=O)O)c3ccccc3c2=O)c(C)n1-c1ccccc1` here?
The Potency was inconclusive [activator, single point].

Which Potency does the source give for `N#Cc1ccccc1NC(=O)COC(=O)c1ccc2c(c1)OCCO2` here?
The Potency was inconclusive [activator, single point].

For `O=C(NCCc1c[nH]c2ccccc12)c1ccc(Cl)cc1`, which Potency is on record?
The Potency was active: 2.82 µM.

With `Cc1snc(SCC(=O)c2ccc([N+](=O)[O-])cc2)c1C#N` as the molecule, how does the Potency read?
The Potency was inconclusive [activator, partial curve].

With `CN(C)C(=O)CCCc1nc(-c2ccc(Cl)cc2)no1` as the molecule, how does the Potency read?
The Potency was active: 3.16 µM.

With `CC(C)C(=O)Nc1ccc(-c2csc(-c3ccccc3)n2)cc1` as the molecule, how does the Potency read?
The Potency was inconclusive [activator, partial curve].

For `CCOc1ccc(C(=O)NCc2cccs2)cc1`, which Potency is on record?
The Potency was inconclusive [activator, single point].

Which Potency does the source give for `COc1cc(/C=N/NC(=O)c2ccccn2)cc2c1OCO2` here?
Its Potency is inconclusive [activator, single point].

Which “activation, negative = inhibition” value does the source give for `Cc1ccc2nc(N/C(=N/S(=O)(=O)c3cccs3)c3ccccc3Cl)sc2c1` here?
The value was inactive: -0.65%.

For `Cc1ccc(OCC(=O)NCC2CCCO2)c(C)c1` (configuration not stated), which Potency is on record?
The Potency was inconclusive [activator, single point].

Which Potency does the source give for `O=C(CSc1ccccn1)Nc1ccc2c(c1)OCCO2` here?
The Potency was active: 2.51 µM.

For `CC(=O)Nc1ccc2c(c1)ncn2-c1ccccc1`, which Potency is on record?
The Potency was active: 1.41 µM.

Which “activation, negative = inhibition” value does the source give for `Cc1cc(C(=O)N/N=C/c2ccc3c(c2)OCO3)c2ccccc2n1` here?
The value was inactive: -22.8%.

With `COC(=O)c1ccc(NC(=O)Nc2ccc([N+](=O)[O-])cc2)cc1` as the molecule, how does the “activation, negative = inhibition” value read?
Its value is inactive: 1.28%.

With `Cc1ccc2cc(CCNC(=O)CCCc3ccccc3)c(=O)[nH]c2c1` as the molecule, how does the “activation, negative = inhibition” value read?
Its value is inactive: -2.97%.

Which “activation, negative = inhibition” value does the source give for `COc1ccc(C(=O)N2CCCC(C(=O)O)C2)c2ccccc12` (configuration not stated) here?
The value was inactive: 0.562%.

With `CCCCCc1ccc(S(=O)(=O)Nc2cc(C)ccn2)cc1` as the molecule, how does the “activation, negative = inhibition” value read?
Its value is inactive: -16.5%.

For `O=C(CSc1nnc(Cc2cc(=O)[nH]c(=O)[nH]2)n1-c1ccc(Cl)cc1)NC1CCCC1`, which Potency is on record?
Its Potency is inconclusive [activator, partial curve].

Which Potency does the source give for `O=CN1CCN(C(=O)c2ccc(-c3nc4ccccc4s3)s2)CC1` here?
Its Potency is active: 1.12 µM.
